Patent US11420968B2 (priority 2018, dated 2022)
Where two headings read alike, the source gives them in different places.

Experiments:
RS4;11 cells = experiment: cells; conditions: Homo sapiens
Molt-4 cells = experiment: cells; conditions: Homo sapiens
[1] = RS4-11, 48 h, read-out: Cellular activity (IC50, nM) RS4, 11
[2] = MOLT-4, read-out: Cellular activity (IC50, nM) Molt-4
[3] = RS4-11, 48 h, read-out: Cellular activity (IC50, nM) RS4;11
[4] = RS4-11, read-out: Celluclar activity (IC50, nM) RS 4, 11
[5] = MOLT-4, read-out: Celluclar activity (IC50, nM) Molt-4

Row | SMILES | IC50 (RS4;11 cells; [1]) [nM] | IC50 (Molt-4 cells; [2]) [nM] | IC50 (RS4;11 cells; [3]) [nM] | IC50 (RS4;11 cells; [4]) [nM] | IC50 (Molt-4 cells; [5]) [nM] | IC50 (RS4;11 cells; RS4-11, read-out: Cellular activity (IC50, nM) RS4, 11) [nM]
1 | O=C(NS(=O)(=O)c1ccc(OCC2(F)CCN(C3COC3)CC2)c([N+](=O)[O-])c1)c1ccc(C2=CCC(N3CCC[C@H]3c3ccccc3C3CC3)CC2)cc1Oc1cnc2[nH]ccc2c1 (stereo partly drawn) [Example G35-S, 3-((1H-pyrrolo[2,3-b]pyridin-5-yl)oxy)-4′-((S)-2-(2-cyclopropylphenyl)pyrrolidin-1-yl)-N-((4-((4-fluoro-1 (oxetan-3-yl)piperidin-4-yl)methoxy)-3-nitrophenyl)sulfonyl)-2′,3′,4′,5′-tetrahydro-[1,1′-biphenyl]-4-carboxamide] | 14 | 5190 |  |  |  | 
2 | CC(C)c1ccccc1[C@@H]1CCCN1C1CC2(C1)CN(c1ccc(C(=O)NS(=O)(=O)c3ccc(NC[C@H]4CC[C@](C)(O)CC4)c([N+](=O)[O-])c3)c(Oc3cnc4[nH]ccc4c3)c1)C2 [Example F109, 2-((1H-pyrrolo[2,3-b]pyridin-5-yl)oxy)-N-((4-((((1r,4r)-4-hydroxy-4-methylcyclohexyl)methyl)amino)-3-nitrophenyl)sulfonyl)-4-(6-((S)-2-(2-isopropylphenyl)pyrrolidin-1-yl)-2-azaspiro[3.3]heptan-2-yl)benzamide] |  | 3850 | 1.2 | 1.2 | 3850 | 
3 | CN1CCCC(N(C)c2ccccc2C2CCCN2c2ccc(-c3ccc(C(=O)NS(=O)(=O)c4ccc(NCC5CCOCC5)c([N+](=O)[O-])c4)c(Oc4cnc5[nH]ccc5c4)c3)cc2)C1 (centres unmarked) [Example A134, 3-((1H-pyrrolo[2,3-b]pyridin-5-yl)oxy)-4′-(2-(2-(methyl(1-methylpiperidin-3-yl)amino)phenyl)pyrrolidin-1-yl)-N-((3-nitro-4-(((tetrahydro-2H-pyran-4-yl)methyl)amino)phenyl)sulfonyl)-[1,1′-biphenyl]-4-carboxamide] |  | 1390 | 2.1 |  |  | 
4 | O=C(NS(=O)(=O)c1ccc(OCC2CCC(O)CC2)c([N+](=O)[O-])c1)c1ccc(-c2ccc(N3CCCC3c3ccccc3Cl)cc2)cc1Oc1cnc2[nH]ccc2c1 (centres unmarked) [Example G6, 3-((1H-pyrrolo[2,3-b]pyridin-5-yl)oxy)-4′-(2-(2-chlorophenyl)pyrrolidin-1-yl)-N-((4-((4-hydroxycyclohexyl)methoxy)-3-nitrophenyl)sulfonyl)-[1,1′-biphenyl]-4-carboxamide] | 59 | 6090 |  |  |  | 
5 | CNCCC(=O)N1CCC(c2ccccc2[C@H]2CCCN2c2ccc(-c3ccc(C(=O)NS(=O)(=O)c4ccc(NCC5CCOCC5)c([N+](=O)[O-])c4)c(Oc4cnc5[nH]ccc5c4)c3)cc2)CC1 [Example A106, (R)-3-((1H-pyrrolo[2,3-b]pyridin-5-yl)oxy)-4′-(2-(2-(1-(3-(methylamino)propanoyl)piperidin-4-yl)phenyl)pyrrolidin-1-yl)-N -((3-nitro-4-(((tetrahydro-2H-pyran-4-yl)methyl)amino)phenyl)sulfonyl)-[1,1′-biphenyl]-4-carboxamide] |  | > 10000 | 175 |  |  | 
6 | CN1CC=C(c2ccccc2[C@H]2CCCN2c2ccc(-c3ccc(C(=O)NS(=O)(=O)c4ccc(NC[C@H]5CC[C@](C)(O)CC5)c([N+](=O)[O-])c4)c(Oc4cnc5[nH]ccc5c4)c3)cc2)CC1 [Example G118, 3-((1H-pyrrolo[2,3-b]pyridin-5-yl)oxy)-N-((4-((((1r,4r)-4-hydroxy-4-methylcyclohexyl)methyl)amino)-3-nitrophenyl)sulfonyl)-4′-((R)-2-(2-(1-methyl-1,2,3,6-tetrahydropyridin-4-yl)phenyl)pyrrolidin-1-yl)-[1,1′-biphenyl]-4-carboxamide] |  | > 10000 | 2.8 | 2.8 | > 10000 | 
7 | O=C(NS(=O)(=O)c1ccc(NC2CCN(C3COC3)CC2)c([N+](=O)[O-])c1)c1ccc(-c2ccc(N3CCCC3c3ccccc3Cl)cc2)cc1Oc1cnc2[nH]ccc2c1 (centres unmarked) [Example G4, 3-((1H-pyrrolo[2,3-b]pyridin-5-yl)oxy)-4′-(2-(2-chlorophenyl)pyrrolidin-1-yl)-N-((3-nitro-4-((1-(oxetan-3-yl)piperidin-4-yl)amino)phenyl)sulfonyl)-[1,1′-biphenyl]-4-carboxamide] | 241 | > 10000 |  |  |  | 
8 | O=C(NS(=O)(=O)c1ccc(NCC2CCOCC2)c([N+](=O)[O-])c1)c1ccc(-c2ccc(N3CCC[C@@H]3c3ccccc3-c3ccncc3)cc2)cc1Oc1cnc2[nH]ccc2c1 (stereo in doubt) [Example A116, 3-((1H-pyrrolo[2,3-b]pyridin-5-yl)oxy)-N-((3-nitro-4-(((tetrahydro-2H-pyran-4-yl)methyl)amino)phenyl)sulfonyl)-4′-(2-(2-(pyridin-4-yl)phenyl)pyrrolidin-1-yl)-[1,1′-biphenyl]-4-carboxamide] |  | 7040 | 65 |  |  | 
9 | C=C1CC(c2ccccc2C2CC2)N(c2ccc(-c3ccc(C(=O)NS(=O)(=O)c4ccc(NCC5CCOCC5)c([N+](=O)[O-])c4)c(Oc4cnc5[nH]ccc5c4)c3)cc2)C1 (centres unmarked) [Example A150, 3-((1H-pyrrolo[2,3-b]pyridin-5-yl)oxy)-4′-(2-(2-cyclopropylphenyl)-4-methylenepyrrolidin-1-yl)-N-((3-nitro-4-(((tetrahydro-2H-pyran-4-yl)methyl)amino)phenyl)sulfonyl)-[1,1′-biphenyl]-4-carboxamide] |  | 4110 | 41 |  |  | 
10 | CS(=O)(=O)N1CCOC(CNc2ccc(S(=O)(=O)NC(=O)c3ccc(C4=CCC(N5CCCC5c5ccccc5C5CC5)CC4)cc3Oc3cnc4[nH]ccc4c3)cc2[N+](=O)[O-])C1 (centres unmarked) [Example G113, 3-((1H-pyrrolo[2,3-b]pyridin-5-yl)oxy)-4′-(2-(2-cyclopropylphenyl)pyrrolidin-1-yl)-N-((4-(((4-(methylsulfonyl)morpholin-2-yl)methyl)amino)-3-nitrophenyl)sulfonyl)-2′,3′,4′,5′-tetrahydro-[1,1′-biphenyl]-4-carboxamide] | 124 | > 10000 |  |  |  | 
11 | O=C(NS(=O)(=O)c1ccc(NCC2CCOCC2)c([N+](=O)[O-])c1)c1ccc(-c2ccc(CN3CCCC3c3ccc(Cl)cc3)cc2)cc1Oc1cnc2[nH]ccc2c1 (centres unmarked) [Example B5, 3-((1H-pyrrolo[2,3-b]pyridin-5-yl)oxy)-4′-((2-(4-chlorophenyl)pyrrolidin-1-yl)methyl)-N-((3-nitro-4-(((tetrahydro-2H-pyran-4-yl)methyl)amino)phenyl)sulfonyl)-[1,1′-biphenyl]-4-carboxamide] | 736 | 5090 |  |  |  | 
12 | O=C(NS(=O)(=O)c1ccc(NCC2CCOCC2)c([N+](=O)[O-])c1)c1ccc(C2=CCC(N3CCCC3C3CCCC3)CC2)cc1Oc1cnc2[nH]ccc2c1 (centres unmarked) [Example C131, 3-((1H-pyrrolo[2,3-b]pyridin-5-yl)oxy)-4′-(2-cyclopentylpyrrolidin-1-yl)-N-((3-nitro-4-(((tetrahydro-2H-pyran-4-yl)methyl)amino)phenyl)sulfonyl)-2′,3′,4′,5′-tetrahydro-[1,1′-biphenyl]-4-carboxamide] | 621 | > 10000 |  |  |  | 
13 | C[C@]1(O)CC[C@H](CNc2ccc(S(=O)(=O)NC(=O)c3ccc(N4CCC5(CC4)CC(N4CCC[C@H]4c4ccccc4)C5)cc3Oc3cnc4[nH]ccc4c3)cc2[N+](=O)[O-])CC1 [Example F129, 2-((1H-pyrrolo[2,3-b]pyridin-5-yl)oxy)-N-((4-((((1r,4r)-4-hydroxy-4-methylcyclohexyl)methyl)amino)-3-nitrophenyl)sulfonyl)-4-(2-((S)-2-phenylpyrrolidin-1-yl)-7-azaspiro[3.5]nonan-7-yl)benzamide] |  | > 10000 | 29 |  |  | 
14 | COc1ccccc1C1CCCN1c1ccc(-c2ccc(C(=O)NS(=O)(=O)c3ccc(NCC4CCOCC4)c([N+](=O)[O-])c3)c(Oc3cnc4[nH]ccc4c3)c2)cc1 (centres unmarked) [Example A18, 3-((1H-pyrrolo[2,3-b]pyridin-5-yl)oxy)-4′-(2-(2-methoxyphenyl)pyrrolidin-1-yl)-N-((3-nitro-4-(((tetrahydro-2H-pyran-4-yl)methyl)amino)phenyl)sulfonyl)-[1,1′-biphenyl]-4-carboxamide] | 73 | > 10000 |  |  |  | 
15 | CS(=O)(=O)N1CCC(CNc2ccc(S(=O)(=O)NC(=O)c3ccc(-c4ccc(N5CCC[C@@H]5c5ccccc5C5CC5)cc4)cc3Oc3cnc4[nH]ccc4c3)cc2[N+](=O)[O-])CC1 [Example G129, (R)-3-((1H-pyrrolo[2,3-b]pyridin-5-yl)oxy)-4′-(2-(2-cyclopropylphenyl)pyrrolidin-1-yl)-N-((4-(((1-(methylsulfonyl)piperidin-4-yl)methyl)amino)-3-nitrophenyl)sulfonyl)[1,1′-biphenyl]-4-carboxamide] |  | 974 | 35 |  |  | 
16 | O=C(NS(=O)(=O)c1ccc(NCCN2CCOCC2)c([N+](=O)[O-])c1)c1ccc(N2CCC3(CC2)CC(N2CCC[C@H]2c2ccccc2C2CC2)C3)cc1Oc1cnc2[nH]ccc2c1 [Example F117, (S)-2-((1H-pyrrolo[2,3-b]pyridin-5-yl)oxy)-4-(2-(2-(2-cyclopropylphenyl)pyrrolidin-1-yl)-7-azaspiro[3.5]nonan-7-yl)-N-((4-((2-morpholinoethyl)amino)-3-nitrophenyl)sulfonyl)benzamide] |  | 1460 | 6.5 |  |  | 
17 | CN1CCN(C2CC3(CCN(c4ccc(C(=O)NS(=O)(=O)c5ccc(NCC6CCOCC6)c([N+](=O)[O-])c5)c(Oc5cnc6[nH]ccc6c5)c4)CC3)C2)C(c2ccccc2C2CC2)C1 (centres unmarked) [Example F90, 2-((1H-pyrrolo[2,3-b]pyridin-5-yl)oxy)-4-(2-(2-(2-cyclopropylphenyl)-4-methylpiperazin-1-yl)-7-azaspiro[3.5]nonan-7-yl)-N-((3-nitro-4-(((tetrahydro-2H-pyran-4-yl)methyl)amino)phenyl)sulfonyl)benzamide] |  | > 10000 | 3.6 | 3.6 | > 10000 | 3.6
